Reference: PubChem BioAssay AID894 (National Center for Advancing Translational Sciences (NCATS), 2007)
Screen size: about 150,000 compounds; about 6,500 (4.3%) were called active. Inconclusive results, whose numbers are uncertain, are shown with a selection of clear calls. The call rests on the fitted dose curve; in most records, active means well fitted inhibition curve with a large enough effect (not every such curve was filed as active); inconclusive means small, poorly fitted or top-dose-only effect, or another doubt; inactive means no such curve, though single readings can be large or run the other way. Where the call is inconclusive, the potency comes from a doubtful curve fit.

What follows are compounds tested against 15-hydroxyprostaglandin dehydrogenase [NAD(+)] (Homo sapiens) (UniProt P15428) (assay: qHTS Assay for Inhibitors of HPGD (15-Hydroxyprostaglandin Dehydrogenase)). Details: purified HPGD, NADH fluorescence kinetic, PGE2 substrate; activity change, negative = inhibition: active compounds read low.
How it was run: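 NADH formation kinetics: reaction with 30 uM PGE2 and 1 mM NAD+ (final), 20 nM enzyme, Tris-HCl pH 8 with Tween 20, after 15 min compound preincubation at room temperature. Fluorescence change, last versus first of five reads.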
On the % scale 0 is the no-effect control and ±100 the full control effect; potency means the concentration at half of the fitted maximal effect; tags describe the fitted curve by direction and shape.

UniProt P15428, sequence (P15428 whole entry, looked up): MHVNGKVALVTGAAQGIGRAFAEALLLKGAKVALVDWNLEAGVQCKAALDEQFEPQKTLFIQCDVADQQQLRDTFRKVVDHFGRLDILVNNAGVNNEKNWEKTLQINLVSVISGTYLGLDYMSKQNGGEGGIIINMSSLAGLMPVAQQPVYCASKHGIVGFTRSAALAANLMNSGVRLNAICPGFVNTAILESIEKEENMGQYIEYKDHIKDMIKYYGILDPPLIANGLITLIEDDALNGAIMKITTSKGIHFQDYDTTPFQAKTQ

Potency, active:
O=C(COc1ccc(Cl)cc1)N1CCCCC1 25.1 µM
O=c1[nH]c2ccc(NC(=S)Nc3ccccc3Cl)cc2[nH]1 22.4 µM
NC(=O)c1cc(Cc2ccccc2)sc1NC(=O)c1ccco1 28.2 µM
COc1cccc2cc(C(=O)N3C(C)CCCC3C)c(=O)oc12 (stereo unspecified) 28.2 µM
COc1ccc(NS(=O)(=O)c2ccc(N3CCCC3)c(NC(=S)Nc3ccc(SC(F)F)cc3)c2)cc1 3.55 µM
Cn1cc(Cl)c(C(=O)NC(=S)Nc2sc3c(c2C#N)CCCCC3)n1 10 µM
CCOC(=O)CN1CC23C=CC(O2)C(C(=O)NCc2ccc(C)cc2)C3C1=O (stereo unspecified) 15.8 µM
Cc1cc2oc(C(=O)Nc3ccc(S(=O)(=O)Nc4nccs4)cc3)cc(=O)c2cc1Cl 31.6 µM
O=C1c2ccccc2CN1CCSC(=S)N1CCOCC1 28.2 µM
C=CC(C)(C)c1[nH]c2ccccc2c1C1=C(O)C(=O)C(c2c[nH]c3c(CC=C(C)C)cccc23)=C(O)C1=O 25.1 µM
CC(CSc1nc2ccccc2s1)Cn1c(N2CCCC2)nc2c1c(=O)[nH]c(=O)n2C (stereo unspecified) 22.4 µM
O=C(CNc1ccccc1)N/N=C/c1c[nH]c2ccccc12 0.126 µM
O=S(=O)(Nc1ccc2c(c1)OCCO2)c1ccc2oc3ccccc3c2c1 28.2 µM

Potency, inconclusive:
CCOc1ccc(C2C=C(c3ccccc3)Nc3nnnn32)cc1 (stereo unspecified) 31.6 µM [inhibitor, partial curve, poor fit]
O=C(Nc1ccc2oc(-c3ccc4ccccc4c3)nc2c1)c1cccs1 31.6 µM [inhibitor, partial curve]
O=C(N/N=C/c1ccc(-c2ccc(S(=O)(=O)Nc3ncccn3)cc2)o1)c1cc2ccccc2cc1O 25.1 µM [inhibitor, partial curve]
COCCNC(=O)CSCc1nc(-c2ccc(SC)cc2)oc1C 31.6 µM [inhibitor, partial curve]
COc1ccccc1-c1cc2nc(C)c(CCC(=O)NCc3ccco3)c(C)n2n1 22.4 µM [inhibitor, partial curve]
CCN(CCO)c1ncnc2c1sc1nc(C(C)C)c3c(c12)CC(C)(C)OC3 35.5 µM [inhibitor, partial curve]
CCn1c(C)nc2cc(C(=O)NNC(=S)Nc3ccc(Cl)cc3Cl)ccc21 17.8 µM [inhibitor, partial curve]
CCN(c1cccc(C)c1)S(=O)(=O)c1ccc2[nH]c(=O)c(=O)[nH]c2c1 14.1 µM [inhibitor, partial curve]
Cc1cc(C)c(C#N)c(SCSCc2ccccc2)n1 25.1 µM [inhibitor, partial curve]
Cc1ccc(-n2nnc3c(=O)n(CC(=O)NCc4ccco4)cnc32)cc1 17.8 µM [inhibitor, partial curve]
Cc1c(OCC(=O)OC(C)C)ccc2c3c(c(=O)oc12)CCC3 10 µM [inhibitor, partial curve]
Cc1ccc2c(CC(=O)Nc3nc(C)cs3)coc2c1 35.5 µM [inhibitor, partial curve]
O=C(O)C1CC=CCC1C(=O)N1CCN(c2nc(-c3ccccc3)c3ccccc3n2)CC1 (stereo unspecified) 20 µM [inhibitor, partial curve]
O=[N+]([O-])c1nn(-c2ccc(Cl)cc2)n(O)c1=NCc1cccnc1 22.4 µM [inhibitor, partial curve]
Cn1c(=O)c2c(nc(Sc3n[nH]c(N)n3)n2Cc2ccccc2Cl)n(C)c1=O 35.5 µM [inhibitor, single point]
Cc1ccc2nc(-c3ccccc3Cl)cc(C(=O)Nc3cc(C)on3)c2c1 35.5 µM [inhibitor, partial curve]
CNC(=O)COc1ccccc1C(=O)Nc1ccc2c(c1)oc1ccccc12 28.2 µM [inhibitor, single point]
CCc1cc2c(=O)c(Oc3ccccc3F)c(C)oc2c(CN(C)C)c1O 25.1 µM [inhibitor, partial curve]
COc1cccc(/C=C(/C#N)c2ccc(F)cc2)c1OCc1cccc(C(=O)O)c1 20 µM [inhibitor, partial curve]
CCn1c(=N)c(C(=O)OC)cc2c(=O)n3ccccc3nc21 25.1 µM [inhibitor, partial curve]
COc1ccc(-c2ncccc2O)cc1 28.2 µM [inhibitor, partial curve]
COc1ccc(CSc2cccc3cccnc23)cc1[N+](=O)[O-] 35.5 µM [inhibitor, partial curve]
CC(C)c1nc(=S)c2ccccc2[nH]1 14.1 µM [inhibitor, partial curve]
O=c1c2c3c(sc2nc2n1CCCCC2)CCCCC3 28.2 µM [inhibitor, partial curve]
CN(C)c1ccc(-c2cc(-n3ccnc3)ncn2)cc1 31.6 µM [inhibitor, partial curve]
Cc1cc(Cl)ccc1Oc1ncnc2oc(-c3ccccc3)cc12 28.2 µM [inhibitor, partial curve]
O=C1OCCN1C(=O)[C@H]1[C@H](c2ccc(Cl)cc2)C(c2ccc(F)cc2)=NN1c1ccccc1 31.6 µM [inhibitor, partial curve]
CCN(CC)S(=O)(=O)c1ccc2oc(C(=O)O)c(C)c2c1 17.8 µM [inhibitor, partial curve]
Cc1cc(C)cc(NC(=S)NCCCO)c1 3.55 µM [inhibitor, single point]
Cc1cccc(C2=NN(c3ccc(Br)cc3)[C@@H](C(=O)N3CCOC3=O)[C@@H]2C)c1 35.5 µM [inhibitor, partial curve]
O=S(=O)(Nc1cccc2ccccc12)N1CCCC1 28.2 µM [inhibitor, partial curve]
CC1(C)Cc2c(cnn2-c2ccccc2)-c2c1c1ccccc1n2CC(O)CCl (stereo unspecified) 28.2 µM [inhibitor, partial curve]
Cc1ccc2cc(C#N)c(SCc3nnc(-c4ccccc4[N+](=O)[O-])o3)nc2c1 14.1 µM [inhibitor, partial curve]
O=C(Nc1cc(Sc2ccccn2)cc([N+](=O)[O-])c1)c1cccc(F)c1 22.4 µM [inhibitor, partial curve]
COc1ccc(CCn2c(=N)c(C(=O)N3CCN(C)CC3)cc3c(=O)n4ccccc4nc32)cc1 25.1 µM [inhibitor, partial curve]
COc1ccc2nc(/N=C/c3c(C)[nH]n(-c4ccc(C)cc4C)c3=O)sc2c1 25.1 µM [inhibitor, partial curve]
COc1cc2c(cc1NC(=O)C(C)OC(=O)/C=C/c1ccc(OC(F)F)cc1)oc1ccccc12 (stereo unspecified) 22.4 µM [inhibitor, partial curve]
O=C(O)c1cc(-c2cccs2)nc2cc3c(cc12)OCCO3 28.2 µM [inhibitor, partial curve]
N#CCCn1c(=O)cnc2cnc(N3CCNCC3)nc21 31.6 µM [inhibitor, partial curve]

Activity change, negative = inhibition, inactive:
Cc1cc(C)n2[nH]c(=O)c(N=Nc3cccc(Cl)c3)c2n1 -19.5%
COc1ccc(C(=O)NN/C(C)=C/C(=O)C(F)(F)C(F)(F)C(F)(F)F)cc1 -13.6%
CCC(=O)Nc1cc(-c2nn3c(C)nnc3s2)ccc1C 0.504%
CCCC/C(C)=N/NC(=O)C(=O)NCCc1ccccc1 -0.114%
CCC(C(=O)NC1CCCCC1)n1c(SCc2ccccc2F)nc2ccncc21 (stereo unspecified) -10.8%
O=C(CCCSc1nnnn1-c1ccccc1)c1ccc(F)cc1 -16.4%
CN(C)c1ccc(/C=C/C(=O)c2ccc3c(c2)OCCO3)cc1[N+](=O)[O-] -9.68%
CCOc1ccc2c(ccc(/C=C\c3cc(C)c4cccnc4c3O)[n+]2C)c1 -15.5%
CC1CC(C)CN(c2ccc([N+](=O)[O-])cc2-c2nn[nH]n2)C1 (stereo unspecified) -8.7%
CCOc1ccc(NS(=O)(=O)c2ccc(OC)c(C)c2)cc1 -12.6%
BrC(Br)C(Br)Br -2.36%
CCc1cc(C(c2ccc(F)cc2)N2CCOCC2)c(NC(=O)c2ccccc2)s1 (stereo unspecified) -28.1%
CC(C)NC(=O)CN1CCC(O)(c2ccccc2)CC1 -16.2%
COc1ccc(/C(O)=C2/C(=O)C(=O)N(CCCN(C)C)C2c2cccc(Cl)c2)cc1OC (stereo unspecified) -1.36%
CCC1(C)N=c2c(c(=O)n(C)c(=O)n2C)=NO1 (stereo unspecified) -12.4%
O=C(CCNc1ccc(F)cc1)c1cccc([N+](=O)[O-])c1 4.24%
c1ccc2[nH]c(SCc3cscn3)nc2c1 -4.28%
COc1ccc(S(=O)(=O)N2CCCC2C(=O)Nc2ccc(C(C)=O)cc2)cc1 (stereo unspecified) -12.2%
CCCCCCNC(=O)Nc1ccc(S(=O)(=O)Nc2ccc(CCNC[C@H](O)COc3ccc(O)cc3)cc2)cc1 -19.5%
